This is one part of the list. The full chains were built here from the parent and the listed change. Inactive controls read about 0.05.
B1: TEV protease; numbered along this chain (parent)
chain: MGESLFKGPRDYNPISSSICHLTNESDGHTTSLYGIGFGPFIITNKHLFRRNNGTLVVQSLHGVFKVKDTTTLQQHLVDGRDMIIIRMPKDFPPFPQKLKFREPQREERICLVTTNFQTKSMSSMVSDTSCTFPSGDGIFWKHWIQTKDGQCGSPLVSTRDGFIVGIHSASNFTNTNNYFTSVPKNFMELLTNQEAQQWVSGWRLNADSVLWGGHKVFMVKPEEPFQPVKEATQL

Variants of: B1
Assay: raw area under fraction-flipped curve 0-4 h after induction (AUC4h, not background-subtracted), DNA-recorder readout of cleavage of the substrate (dimensionless); higher = more cleavage of the substrate by the protease variant
Conditions: temperature: 34 °C; time window: 0-4 h after rhamnose induction
Procedure: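 In vivo DNA recorder in E. coli TOP10(DE3) ΔrhaA at 34 °C. Each TEVp single-site mutant (parent TEVp 0) is paired with a single-site variant of the 7-mer TEVs (canonical ENLYFQ|S). The substrate sits between flexible linkers in a Bxb1-sfGFP-TEVs-SsrA fusion, so cleavage stabilises Bxb1 and speeds flipping of a recombination array, read by NGS. The value is the raw area under the fraction-flipped curve over 0-4 h after rhamnose induction (AUC4h), with ≥20 reads per time point. It is not background-subtracted; inactive controls average about 0.047.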
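Also: Bxb1 expression induced with 0.2% (w/v) L-rhamnose at OD600 near 0.5, cultures sampled hourly, flipped fraction per protease–substrate barcode pair counted by paired-end Illumina sequencing.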

Variant	area with substrate ENAYFQS	area with substrate ENCYFQS	area with substrate ENDYFQS	area with substrate ENGYFQS	area with substrate ENHYFQS	area with substrate ENNYFQS	area with substrate ENQYFQS	area with substrate ENRYFQS	area with substrate ENVYFQS	area with substrate ENIYFQS	area with substrate ENPYFQS	area with substrate ENTYFQS	area with substrate ENMYFQS	area with substrate ENSYFQS	area with substrate ENEYFQS	area with substrate ENKYFQS	area with substrate ENYYFQS	area with substrate ENFYFQS	area with substrate ENWYFQS
T72Q	0.0605	0.0689	0.0542	0.066	0.0537	0.0654	0.0756	0.0532	0.0883	–	–	–	–	–	–	–	–	–	–
Y34L	0.0698	0.0732	0.0444	–	0.0481	0.0536	–	–	–	0.0962	0.0623	0.0519	–	–	–	–	–	–	–
V64M	0.0685	0.0643	0.0606	0.0657	–	–	0.055	0.0499	0.0919	0.0898	0.0648	0.0525	0.0789	0.0639	–	–	–	–	–
V64A	0.0613	0.0643	0.0607	–	–	–	–	0.056	–	–	0.0581	0.066	–	0.0581	0.0573	0.0598	0.053	–	–
V64I	0.0548	0.0618	0.0683	0.052	–	0.0648	0.0674	–	0.08	–	0.059	0.0764	0.0544	0.0652	0.0688	–	0.0544	0.0709	–
V64G	0.0516	0.0566	0.0473	0.06	–	0.067	0.0158	0.0696	0.0668	0.0904	0.0555	–	–	0.0587	0.0627	–	0.0472	0.064	–
V64H	0.0636	0.0753	–	–	–	–	0.0613	–	0.0732	–	–	–	–	–	0.0545	–	–	–	–
V64E	0.0732	–	0.0695	0.0689	0.0557	–	0.0603	–	–	0.127	0.0559	–	–	0.0626	0.0603	–	–	0.0639	0.0454
V64D	0.0687	0.074	–	–	–	–	–	0.061	0.0595	0.125	–	–	–	–	–	0.0547	–	0.0452	0.0362
L48D	0.0754	0.0632	0.0565	0.063	0.0853	0.0676	0.0606	0.0648	0.0594	0.0455	0.0541	0.0541	–	0.0714	0.067	0.0666	–	0.0562	0.0631
L48P	0.0405	–	0.0688	0.0078	–	–	0.057	–	–	0.0674	0.0533	0.0615	0.0505	0.0611	–	–	–	0.057	–
L48Y	0.0537	0.0665	0.0708	–	–	–	0.0532	0.0636	0.052	0.0701	–	0.0688	0.0621	0.0615	0.0589	–	–	0.0635	–
L61C	0.0551	0.0721	0.0618	0.0625	0.0642	0.0834	0.0593	0.0562	0.094	0.114	0.0597	0.0818	0.0849	0.0677	0.0632	0.0515	0.0517	0.0549	0.0066
G63W	0.0565	0.0608	0.0788	0.0567	0.0685	–	0.0545	0.0582	0.0739	0.108	–	0.0593	–	0.0553	0.0552	0.0592	–	0.0585	–
H47G	0.0528	0.0658	0.0686	0.0626	0.0594	0.0506	0.0563	0.0575	0.0532	0.0741	0.06	0.054	0.0708	0.0703	0.0656	0.0376	0.0485	0.061	0.0585
P40M	0.0717	–	0.0605	0.0648	–	0.0734	0.0545	–	0.0719	–	0.0399	–	–	0.0754	0.0574	–	0.0771	–	–
P40W	0.05	0.0479	0.0467	0.0532	0.0213	0.0718	0.0577	0.0535	0.0769	0.0906	0.0512	0.0513	–	0.0576	0.0739	0.0599	–	0.0551	–
G35R	0.0576	–	0.0713	–	–	0.0387	0.0501	0.0371	–	–	–	0.0424	–	–	–	–	–	–	–
T55Q	0.0672	0.0866	0.0656	–	0.0585	0.062	0.0626	0.0599	0.0567	0.108	0.0671	0.0607	0.0696	–	0.0538	0.0627	–	0.0743	–
T55V	0.0634	0.0616	0.0584	0.0728	–	–	0.061	0.064	0.0791	0.126	0.0534	0.0554	0.0763	0.0668	0.0578	0.0591	0.0565	–	0.0631
I36P	0.0547	–	0.0471	0.0362	0.0444	0.0441	0.0418	0.0224	0.0483	0.0436	–	0.034	–	0.0369	0.0393	0.0276	–	0.0486	–
F65A	0.0579	0.0781	–	0.0531	0.0771	0.0385	0.0549	0.046	0.0701	0.0931	–	0.0672	–	0.0621	0.0607	0.0596	0.0567	–	0.0386
L33K	0.0621	0.0518	0.0501	–	–	–	0.0483	–	–	–	–	0.0564	–	0.0595	0.0625	–	0.0597	0.0627	–
L33S	0.0495	0.0782	0.0584	0.0498	–	0.0579	0.0596	0.0561	0.0652	0.0809	0.0616	0.0576	0.0643	0.0538	0.0563	0.0533	–	0.0483	–
K68R	0.0599	0.0646	0.0551	0.0632	0.0759	0.061	0.0577	0.0625	0.0768	0.083	0.0611	0.0654	0.0777	–	0.0553	–	0.066	0.0756	0.0401
I42S	0.0427	0.0334	0.0488	0.0465	0.0397	0.0544	0.0542	0.0448	0.0474	0.0556	0.0457	0.0467	–	0.0472	0.0473	–	–	0.0449	–
Q75N	0.0759	0.0599	0.0421	0.0576	0.065	0.0485	0.0643	0.0817	0.042	0.0517	0.0576	–	–	0.0645	0.0623	0.088	–	0.038	–
